# Assay results: PubChem BioAssay (NCATS)
# Values joined by “and” are separate entries in the source; they are usually repeats but may differ in a detail not shown here. Equal values may be shown once. The inconclusive results got no clear call from the source; some entries with a clear call stand among them for comparison. For some of these results: Potencies of inconclusive entries are left out as doubtful fits. For some of these results: A note “side channel” means that the fit belongs to a control or component signal, not to the main read-out. Active and inactive are the calls of the source. Unless noted, the call rests on the fitted dose curve; in most records, active means well fitted curve in the direction sought with a large enough effect; inconclusive means small, poorly fitted or top-dose-only effect, or another doubt; inactive means no such curve, though single readings can be large; an effect the other way counts as inactive or inconclusive.
# Experiments:
# [1] = target: Voltage-gated inwardly rectifying potassium channel KCNH2 (Homo sapiens) (UniProt Q12809); assay: qHTS Assay for Small Molecule Inhibitors of the Human hERG Channel Activity (AID 588834);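 further: potency means the concentration at half of the fitted maximal effect; lower thallium flux fluorescence means stronger hERG block; nearly all actives have a fitted effect of over 50% in size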
# Chain of UniProt Q12809 (Q12809 whole entry, looked up): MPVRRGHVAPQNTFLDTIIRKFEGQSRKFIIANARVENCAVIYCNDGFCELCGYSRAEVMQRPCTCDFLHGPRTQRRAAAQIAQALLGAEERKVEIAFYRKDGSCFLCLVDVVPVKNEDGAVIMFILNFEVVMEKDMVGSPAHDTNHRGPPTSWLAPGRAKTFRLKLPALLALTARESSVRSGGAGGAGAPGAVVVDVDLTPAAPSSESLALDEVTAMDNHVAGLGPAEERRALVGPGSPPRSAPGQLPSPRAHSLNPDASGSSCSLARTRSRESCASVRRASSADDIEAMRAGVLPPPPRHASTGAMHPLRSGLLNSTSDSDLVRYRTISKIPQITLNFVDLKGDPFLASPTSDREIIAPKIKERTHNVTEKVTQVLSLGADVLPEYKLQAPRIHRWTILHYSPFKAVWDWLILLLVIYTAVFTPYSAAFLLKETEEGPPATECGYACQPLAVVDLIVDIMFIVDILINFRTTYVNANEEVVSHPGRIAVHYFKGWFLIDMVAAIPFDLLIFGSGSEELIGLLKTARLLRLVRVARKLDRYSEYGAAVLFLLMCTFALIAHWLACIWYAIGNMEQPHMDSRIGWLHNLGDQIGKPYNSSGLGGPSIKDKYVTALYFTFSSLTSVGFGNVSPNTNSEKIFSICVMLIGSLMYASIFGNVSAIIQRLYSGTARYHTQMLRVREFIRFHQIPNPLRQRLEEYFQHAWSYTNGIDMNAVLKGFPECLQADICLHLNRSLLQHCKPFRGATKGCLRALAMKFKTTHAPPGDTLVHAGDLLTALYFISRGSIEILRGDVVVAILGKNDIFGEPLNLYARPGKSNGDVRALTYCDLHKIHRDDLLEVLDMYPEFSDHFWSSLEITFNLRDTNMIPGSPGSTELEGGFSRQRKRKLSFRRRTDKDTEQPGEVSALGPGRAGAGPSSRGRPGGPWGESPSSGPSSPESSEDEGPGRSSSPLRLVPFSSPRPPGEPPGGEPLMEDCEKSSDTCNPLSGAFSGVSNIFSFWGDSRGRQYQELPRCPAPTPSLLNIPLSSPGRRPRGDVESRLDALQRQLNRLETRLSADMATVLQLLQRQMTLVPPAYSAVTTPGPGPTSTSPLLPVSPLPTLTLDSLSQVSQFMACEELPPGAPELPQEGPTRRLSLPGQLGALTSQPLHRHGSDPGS
# In short: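 Blockade is seen as reduced FluxOR thallium-flux fluorescence in U2OS cells expressing hERG from a BacMam construct, in Opti-MEM with 2% FCS. Concentration-response data fitted to the Hill equation for AC50.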
# [2] = target: Pyruvate kinase PKM (Homo sapiens) (UniProt P14618); assay: qHTS Assay for Activators of Human Muscle Pyruvate Kinase (AID 954; active means well fitted curve in the direction sought with a large enough effect, not every such curve was filed as active; inconclusive means small, poorly fitted or top-dose-only effect, or effect the other way, or another doubt; inactive means no such curve, though single readings can be large or run the other way; further: potency means the concentration at half of the fitted maximal effect)
# Chain of UniProt P14618 (P14618 whole entry, looked up): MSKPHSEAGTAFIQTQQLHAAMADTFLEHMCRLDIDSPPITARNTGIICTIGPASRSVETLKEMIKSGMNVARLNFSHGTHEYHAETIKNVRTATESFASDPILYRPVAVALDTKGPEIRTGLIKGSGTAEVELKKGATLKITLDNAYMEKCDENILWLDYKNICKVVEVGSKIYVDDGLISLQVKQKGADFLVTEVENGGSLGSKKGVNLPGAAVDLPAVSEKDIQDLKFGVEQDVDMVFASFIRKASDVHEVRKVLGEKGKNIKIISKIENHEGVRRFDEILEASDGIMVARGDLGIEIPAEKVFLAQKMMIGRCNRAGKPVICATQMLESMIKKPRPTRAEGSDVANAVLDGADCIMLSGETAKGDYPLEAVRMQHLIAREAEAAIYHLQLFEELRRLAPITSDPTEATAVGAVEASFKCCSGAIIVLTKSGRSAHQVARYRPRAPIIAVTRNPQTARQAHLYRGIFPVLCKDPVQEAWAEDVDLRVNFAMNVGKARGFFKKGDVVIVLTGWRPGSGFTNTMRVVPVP
# In short: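 Human PKM2 activity is measured as ATP generation, detected by luciferase-coupled luminescence. The enzyme (0.1 nM) acts on 0.5 mM PEP and 0.1 mM ADP for 1 h at ambient temperature; data are normalized to uninhibited and full-inhibition wells.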
# [3] = target: Pyruvate kinase PKM (Homo sapiens) (UniProt P14618); assay: qHTS Assay for Inhibitors of Human Muscle Pyruvate Kinase (AID 958)
# In short: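 ATP production by PKM2 detected via luciferase luminescence after 1 h room-temperature reaction (0.1 nM enzyme, PEP at Km 0.5 mM, ADP 0.1 mM, pH 7.2 imidazole buffer). Inhibition scaled to no-enzyme control; activation referenced to 0.3 nM enzyme wells.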
# [4] = target: Muscarinic acetylcholine receptor M1 (Rattus norvegicus) (UniProt P08482); assay: qHTS Assay for Antagonists of Acetylcholine Muscarinic M1 Receptor: Kinetic Measurement of Intracellular Calcium Response (AID 943); further: potency means the concentration at half of the fitted maximal effect; nearly all actives have a fitted effect of over 75% in size
# Chain of UniProt P08482 (P08482 whole entry, looked up): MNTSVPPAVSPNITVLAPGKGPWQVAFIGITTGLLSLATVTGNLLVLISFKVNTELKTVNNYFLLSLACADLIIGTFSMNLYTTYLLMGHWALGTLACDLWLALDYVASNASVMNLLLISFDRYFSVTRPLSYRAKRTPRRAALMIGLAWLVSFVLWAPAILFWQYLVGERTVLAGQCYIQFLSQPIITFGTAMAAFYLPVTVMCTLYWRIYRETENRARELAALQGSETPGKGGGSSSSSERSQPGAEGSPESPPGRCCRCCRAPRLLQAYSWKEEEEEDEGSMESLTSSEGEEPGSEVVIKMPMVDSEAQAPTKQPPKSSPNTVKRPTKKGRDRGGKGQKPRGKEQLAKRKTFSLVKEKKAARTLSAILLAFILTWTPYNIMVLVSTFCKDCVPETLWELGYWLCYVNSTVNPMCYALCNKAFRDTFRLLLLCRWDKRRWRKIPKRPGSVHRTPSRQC
# In short: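 Rat M1-CHO cells, 2000/well, overnight → Fluo-4 no-wash dye with probenecid, 1 h 37C → compound 10 min, room temp → basal read 6 s → carbachol EC80 (100 nM) → 4 min kinetic read; peak/basal.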
# [5] = target: Bile acid receptor (Homo sapiens) (UniProt Q96RI1); assay: qHTS assay for small molecule agonists of farnesoid X receptor signaling (AID 588527; calls by dose curve; further: potency means the concentration at half of the fitted maximal effect); conditions: HEK293T FXR-UAS-bla, beta-lactamase ratio, 16 h; activation: active compounds read high
# In short: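 Agonist-mode beta-lactamase reporter in GeneBLAzer FXR-UAS-bla HEK293T cells, titration up to 92 uM, 16 h exposure at 37 C, CCF4 fluorescence. Response scaled to DMSO (0%) and 100 uM chenodeoxycholic acid (100%), then Hill-fitted for EC50 and efficacy.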
# [6] = Cell Viability - NIH 3T3 (AID 541); conditions: NIH 3T3 cell viability, qHTS; activity change, negative = cytotoxicity: at 92.2 µM (top of the series);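 further: plate controls were DMSO alone for no effect and tamoxifen positive control for full effect; nearly all actives have a fitted effect of over 25% in size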
# In short: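 Luminescent ATP signal (CellTiter-Glo) served as the viability read-out after NIH 3T3 cells were exposed to compounds over a concentration range for 40 hr at 37 °C. Hill-equation modelling of concentration-response data gave AC50.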
# [7] = Cell Viability - LYMP2-017 (AID 972); further: on the % scale 0 is the no-effect control and ±100 the full control effect; nearly all actives have a fitted effect of over 55% in size
# In short: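 2500 cells/well, 5 h 37 C; cpd 24 h 37 C in complete medium; CellTiter-Glo, 30 min RT; luminescence (ATP). AC50 via Hill fit, qHTS.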
# [8] = target: Thyroid hormone receptor beta (Homo sapiens) (UniProt P10828); assay: qHTS assay for small molecule agonists of thyroid hormone receptor beta signaling (AID 588545; calls by dose curve; further: potency means the concentration at half of the fitted maximal effect); conditions: TR-UAS-bla GripTite HEK 293, beta-lactamase ratio, agonist mode, 18 h; activation: at 76.7 µM, percent of T3 response, DMSO as zero
# Chain of UniProt P10828 (P10828 whole entry, looked up): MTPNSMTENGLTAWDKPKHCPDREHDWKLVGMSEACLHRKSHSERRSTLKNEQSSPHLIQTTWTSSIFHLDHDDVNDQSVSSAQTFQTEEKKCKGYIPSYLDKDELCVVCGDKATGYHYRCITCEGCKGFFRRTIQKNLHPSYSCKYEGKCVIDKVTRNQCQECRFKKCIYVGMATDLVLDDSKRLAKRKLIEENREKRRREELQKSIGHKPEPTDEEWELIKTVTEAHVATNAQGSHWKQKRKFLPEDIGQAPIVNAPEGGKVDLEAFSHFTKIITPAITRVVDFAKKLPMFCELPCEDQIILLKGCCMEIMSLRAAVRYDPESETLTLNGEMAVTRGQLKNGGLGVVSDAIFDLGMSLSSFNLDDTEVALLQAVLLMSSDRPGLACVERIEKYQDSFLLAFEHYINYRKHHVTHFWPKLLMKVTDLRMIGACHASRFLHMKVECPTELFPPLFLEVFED
# In short: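 HEK 293 TR-UAS-bla; agonist mode; 18 hrs, 37 C; CCF4, ex 405/em 460 and 530 nm; norm. T3 10 nM = 100%, DMSO = 0%; Hill fit → EC50, efficacy.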
# [9] = target: Cytochrome P450 3A4 (Homo sapiens) (UniProt P08684); assay: qHTS Assay for Inhibitors and Substrates of Cytochrome P450 3A4 (AID 884); further: nearly all actives have a fitted effect of over 50% in size; further: potency means the concentration at half of the fitted maximal effect
# Chain of UniProt P08684 (P08684 whole entry, looked up): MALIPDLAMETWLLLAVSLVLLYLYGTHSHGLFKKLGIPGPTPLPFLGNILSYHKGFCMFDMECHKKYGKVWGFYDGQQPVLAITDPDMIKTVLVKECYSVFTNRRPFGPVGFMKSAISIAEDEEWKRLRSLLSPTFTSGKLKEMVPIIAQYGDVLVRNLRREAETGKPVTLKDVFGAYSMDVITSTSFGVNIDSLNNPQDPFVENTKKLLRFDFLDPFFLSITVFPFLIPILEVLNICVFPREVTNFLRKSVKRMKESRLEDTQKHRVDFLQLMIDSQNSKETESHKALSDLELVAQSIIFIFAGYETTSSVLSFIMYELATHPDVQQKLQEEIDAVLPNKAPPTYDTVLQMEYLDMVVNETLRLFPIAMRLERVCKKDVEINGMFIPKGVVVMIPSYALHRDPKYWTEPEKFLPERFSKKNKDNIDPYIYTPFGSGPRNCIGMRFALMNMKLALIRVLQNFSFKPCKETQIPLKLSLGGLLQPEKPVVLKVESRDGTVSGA
# In short: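 20 nM human CYP3A4 with 25 uM Luciferin-PPXE (at KM) in 200 mM KPO4, preincubated 10 min with compound; NADPH regeneration started a 60 min RT reaction. Luciferin detected by luminescence, normalized to 57 uM ketoconazole as full inhibition.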
# [10] = qHTS assay for small molecule disruptors of the mitochondrial membrane potential - 1 hr assay (AID 651754; calls by dose curve; further: nearly all actives have a fitted effect of over 35% in size; further: potency means the concentration at half of the fitted maximal effect; on ratio change, negative = depolarisation: on the % scale 0 is the no-effect control and ±100 the full control effect); conditions: ratio change, negative = depolarisation: at 92.2 µM (top of the series)
# In short: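 HepG2, 2,000 cells/well, overnight attachment; cpd or DMSO 1 hr, 37C/5% CO2; Mito-MPS dye 30 min, 37C; fluorescence monomer (490/535) and aggregate (540/590).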
# [11] = target: Peroxisome proliferator-activated receptor gamma (Homo sapiens) (UniProt P37231); assay: qHTS assay for small molecule agonists of peroxisome proliferator-activated receptor gamma signaling (AID 588536; active means well fitted curve in the direction sought with a large enough effect in the signal ratio, with a control signal flat, not every such curve was filed as active; inconclusive means small, poorly fitted or top-dose-only effect, or effect the other way, or a change in a side signal; inactive means no such curve, though single readings can be large or run the other way; the % refers to the signal ratio;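 further: 0% = DMSO basal wells and 100% = rosiglitazone at 2 µM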); conditions: HEK293 PPARg-UAS-bla, beta-lactamase ratio, 16 h; activation: at 76.7 µM (top of the series), percent of rosiglitazone response, DMSO as zero
# Chain of UniProt P37231 (P37231 whole entry, looked up): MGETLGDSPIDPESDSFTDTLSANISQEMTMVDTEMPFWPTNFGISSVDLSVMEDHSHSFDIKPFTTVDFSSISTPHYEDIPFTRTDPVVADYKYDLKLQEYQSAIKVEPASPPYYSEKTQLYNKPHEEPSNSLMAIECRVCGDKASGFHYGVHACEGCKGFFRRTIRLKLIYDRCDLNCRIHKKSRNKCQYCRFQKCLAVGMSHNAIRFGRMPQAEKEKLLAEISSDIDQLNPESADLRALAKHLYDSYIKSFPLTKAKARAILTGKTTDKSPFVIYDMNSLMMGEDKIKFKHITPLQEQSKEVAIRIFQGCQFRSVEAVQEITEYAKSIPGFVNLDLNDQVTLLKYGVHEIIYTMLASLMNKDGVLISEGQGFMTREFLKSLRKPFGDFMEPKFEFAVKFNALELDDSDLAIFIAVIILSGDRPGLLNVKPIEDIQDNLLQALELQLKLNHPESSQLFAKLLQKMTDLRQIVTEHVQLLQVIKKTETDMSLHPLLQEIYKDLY
# In short: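 Ratiometric blue/green fluorescence (405 nm excitation; 460 and 530 nm emission) from CCF4-loaded HEK293 reporter cells serves as signal. Exposure to test compounds lasts 16 h at 37 C in medium containing 1% charcoal/dextran-treated serum.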
# [12] = qHTS assay for small molecule antagonists of the retinoid-related orphan receptor gamma (ROR-gamma) signaling pathway - cell viability counter screen (AID 720652; active means well fitted curve in the direction sought with a large enough effect in the repeat runs; inconclusive means weak or mixed curves; inactive means no such curve, though single readings can be large; an effect the other way counts as inactive or inconclusive;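 further: compound exposure lasted 16 hr before ATP read; on the % scale 0 is the no-effect control and ±100 the full control effect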)
# In short: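 Luminescence from CellTiter-Glo after 30 min at room temperature reported cellular ATP as the cytotoxicity measure. Cells were the CHO reporter line with doxycycline-induced ROR-gamma expression, exposed to compound for 16 hr at 37 C.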
# [13] = Cell Viability - LYMP2-005 (AID 967); further: potency means the concentration at half of the fitted maximal effect
# In short: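 Luciferase-based ATP quantitation served as the viability measure in human lymphoblastoid LYMP2-005 cells exposed to test compounds for 24 h at 37 C in complete culture medium. Potency (AC50) was obtained by fitting concentration-response curves with the Hill equation.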
# [14] = target: Estrogen receptor (Homo sapiens) (UniProt P03372); assay: qHTS assay for small molecule agonists of estrogen receptor alpha signaling (AID 588514; calls by dose curve;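 further: 0% = vehicle only and 100% = reference agonist; nearly all actives have a fitted effect of over 70% in size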); conditions: ER-alpha-UAS-bla HEK293, beta-lactamase ratio, 18 h; activation: at 76.8 µM (top of the series), percent of full estradiol response, vehicle zero
# Chain of UniProt P03372 (P03372 whole entry, looked up): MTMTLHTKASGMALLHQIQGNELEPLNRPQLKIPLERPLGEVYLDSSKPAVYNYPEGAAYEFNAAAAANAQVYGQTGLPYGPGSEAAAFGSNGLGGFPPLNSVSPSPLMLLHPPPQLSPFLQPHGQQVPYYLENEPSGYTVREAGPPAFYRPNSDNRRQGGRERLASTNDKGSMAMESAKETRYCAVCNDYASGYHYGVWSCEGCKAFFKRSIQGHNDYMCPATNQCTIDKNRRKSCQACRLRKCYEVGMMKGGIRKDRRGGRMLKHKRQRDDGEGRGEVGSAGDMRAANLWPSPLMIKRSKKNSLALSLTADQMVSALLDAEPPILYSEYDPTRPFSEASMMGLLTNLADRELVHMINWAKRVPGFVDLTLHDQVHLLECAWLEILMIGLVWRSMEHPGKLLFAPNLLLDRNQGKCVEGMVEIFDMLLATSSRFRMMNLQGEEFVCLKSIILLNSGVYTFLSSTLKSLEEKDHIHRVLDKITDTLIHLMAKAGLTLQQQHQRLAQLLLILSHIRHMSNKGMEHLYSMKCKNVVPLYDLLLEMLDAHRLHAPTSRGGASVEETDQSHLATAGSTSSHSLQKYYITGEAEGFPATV
# In short: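 Cells were plated at 5000/well, incubated 4 hrs at 37 C, dosed with compound titration series, incubated 18 hrs at 37 C, loaded with CCF4 dye for 2 hrs at RT, then fluorescence was read.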
# [15] = qHTS assay for small molecule disruptors of the mitochondrial membrane potential - 5 hr assay (AID 651755; calls by dose curve; further: on the % scale 0 is the no-effect control and ±100 the full control effect; nearly all actives have a fitted effect of over 40% in size); conditions: JC-1-type ratio dye; ratio change, negative = disruption: at 92.2 µM (top of the series)
# In short: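 HepG2, 2,000 cells/well, overnight attach; cpd or DMSO 5 hr, 37C/5% CO2; Mito-MPS 30 min 37C; fluor 490/535 + 540/590 nm.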
# [16] = target: Tumor necrosis factor (Homo sapiens) (UniProt P01375); assay: qHTS assay to identify small molecules that stimulate Tumor Necrosis Factor-alpha (TNF-alpha) secretion (AID 651757; active means well fitted curve in the direction sought with a large enough effect in the signal ratio; inconclusive means small, poorly fitted or top-dose-only effect, or a change in a side signal; inactive means no such curve, though single readings can be large or run the other way; the % refers to the signal ratio; further: 0% is about no effect); conditions: Human cells, HTRF 665/615 ratio; activation (TNF-alpha secretion): at 92.2 µM (top of the series)
# Chain of UniProt P01375 (P01375 whole entry, looked up): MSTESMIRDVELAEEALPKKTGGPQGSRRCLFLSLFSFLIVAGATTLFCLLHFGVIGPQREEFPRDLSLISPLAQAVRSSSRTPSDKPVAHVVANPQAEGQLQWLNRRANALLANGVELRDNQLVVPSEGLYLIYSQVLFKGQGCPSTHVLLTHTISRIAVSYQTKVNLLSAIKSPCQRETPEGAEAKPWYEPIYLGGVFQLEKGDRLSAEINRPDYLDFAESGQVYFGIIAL
# In short: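 Read-out is HTRF, a TR-FRET sandwich of cryptate- and XL665-labeled anti-TNF-alpha antibodies detecting cytokine secreted by THP-1 cells. Cells had been incubated with test compounds at 37 C for 17 hrs beforehand.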
# Tags describe the fitted curve by direction and shape.
smiles,measurement,setting,value
C=CCN1CCCC1CNC(=O)c1cc(S(N)(=O)=O)cc(OC)c1OC (centres undefined),Potency,[1],"inconclusive [inhibitor, single point]"
CO/N=C(\C(=O)N[C@@H]1C(=O)N2C(C(=O)O)=C(COC(C)=O)CS[C@@H]12)c1csc(N)n1,Potency,[2],"inconclusive [activator, single point]"
same,Potency,[3],inactive
CCN(CC)CCC[C@H](C)Nc1ccnc2cc(Cl)ccc12,Potency,[4],active: 5.01 µM
CC1CCC(C(C)C)C(O)C1 (centres undefined),Potency,[5],"inconclusive [side channel, falling, full curve, poor fit]"
OCC(O)CO,"activity change, negative = cytotoxicity",[6],inactive: -10.7% and inactive: -2.8%
same,Potency,[7],inactive
same,Potency,[8],"inconclusive [side channel, falling, partial curve, poor fit]"
O=[N+]([O-])c1cc(C(F)(F)F)ccc1Cl,Potency,[9],inactive
same,Potency,[10],inactive
Cc1ccc(N(C)C)cc1,Potency,[11],inactive
same,activation,[8],inconclusive: -58.6%
same,Potency,[12],inactive
COc1ccc2[nH]cc(CCNc3cc(-c4ccccc4C)ncn3)c2c1,Potency,[9],active: 5.01 µM
O=[N+]([O-])c1ccc2nc[nH]c2c1,Potency,[13],"inconclusive [rising, single point]"
same,Potency,[14],inactive
same,Potency,[10],"inconclusive [inhibitor, partial curve, poor fit]"
same,"ratio change, negative = disruption",[15],inconclusive: -21.6%
same,activation (TNF-alpha secretion),[16],inconclusive: 0.869%
